Laboratory results taken from the RNAGym collection of RNA variant scans (doi:10.1073/pnas.2313332121).
Variants at the floor of the assay are shown more often than the library holds them.

B1: TPR 5TU (parent)
chain: GGAUCUUCUCGAUCUAACAAAAAAGACAAAUCUGCCACAAAGCUUGAGAGCAUCUUCGGAUGCAGAGGCGGCAGCCUUCGGUGGCGCGAUAGCGCCAACGUUCUCAACUAUGACACGCAAAACGCGUGCUCCGUUGAAUGGAGUUUAUCAUG

Variants of: B1
Assay: polymerase ribozyme fitness, log enrichment relative to wild type (log ratio); higher = more active; in vitro selection for triplet polymerase activity
Summary of the method: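 Streptavidin-bead capture of gel-excised extended constructs, followed by RT-PCR, closed a single triplicate in vitro selection round. That round began by annealing PCR-built, transcribed mutant libraries of each subunit of a heterodimeric triplet polymerase ribozyme with a biotinylated primer, the partner subunit and triplets, then incubating them frozen at −7 °C. After Illumina sequencing of inputs and outputs, genotypes needed ≥10 input reads and ≥1 read per output. Fitness is the base-2 logarithm of genotype enrichment over wild-type enrichment, using inverse-variance-weighted replicate averages.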

Row | Variant | polymerase ribozyme fitness (log ratio)
1 | C18G G48A A89G C96U A138U | ≤ -4.2
2 | A17G A20U C32G U45C C54A G65C C108U | ≤ -4.2
3 | A17C G81C G100C C118U | ≤ -4.2
4 | A16U A22U A64U G94A G117A C132A U151G | ≤ -4.2
5 | C18G U44A G92U C99A U101A | ≤ -4.2
6 | A17U A19G A22U A49C U55C A64U C93A | ≤ -4.2
7 | A17C A22G G42A A49G U56G A64G C85A U90G | ≤ -4.2
8 | A16U C63G C87A A107U A142C G143A | ≤ -4.2
9 | A17U A20C C85U U102G C116G | -3.83
10 | C18U A26U G71C U111G | ≤ -4.2
11 | A16G U82A U145G | -1.4
12 | A17G A39C A107U | ≤ -4.2
13 | C18G A39G G65C G141C | ≤ -4.2
14 | C18G G84U | -1.93
15 | A16G U78A C93G | ≤ -4.2
16 | A17G C79U C85U C131G | ≤ -4.2
17 | C18U A40U G143C | -2.98
18 | A17U C57U G136A | 0.435
19 | A17U G94C C132U | -1.54
20 | A17U G46A G74C C76A A107C A115U | ≤ -4.2
21 | C18G A49C G67U G84U A107U | ≤ -4.2

Row | Variant | polymerase ribozyme fitness (log ratio)
22 | C18A A26U G84A A138G | ≤ -4.2
23 | A17U A22U A26G C36G A66G C85U C99A | ≤ -4.2
24 | C18G C32G C35U G86U C105G A115C | -4
25 | A17U C35U G81U G84A A91C G92A U127C G143A | ≤ -4.2
26 | C18G C38A C69G C87U G143U U145A | -3.47
27 | A17U G42U C76U C79U C87A | ≤ -4.2
28 | A17G G58C C72U G152A | -2.87
29 | A16U A23G C27U A47G G74A G86A | ≤ -4.2
30 | A17C A30G C43G C95A A142C | ≤ -4.2
31 | C18U A20U G25U G34A G92C | ≤ -4.2
32 | A16U A22G C57A U135A | -3.06
33 | C18G A22C C51U G83A G92A A150C | ≤ -4.2
34 | A16G U55A G83A G117U | -1.7
35 | C18A A19G G67C C72U G80C U101A C131G A138U | ≤ -4.2
36 | A17G U77C A91G A113G G126C U151A | ≤ -4.2
37 | C18U A37U U144A | -1.92
38 | C18G U31A U33G G58A U61G U101A C103G A120C | ≤ -4.2
39 | A17C C18U G48A G71A A91G U102C | ≤ -4.2
40 | A17U G71C C96A A119U U139A U148C | ≤ -4.2
41 | A16U C27G A30U C35G G83A C103U | ≤ -4.2
42 | A17G A49U G83U | -3.31

Row | Variant | polymerase ribozyme fitness (log ratio)
43 | A16U G84U C131U G136C | ≤ -4.2
44 | A17U A19G A37C G59A U61A C76U G94U G124A | ≤ -4.2
45 | A17G A30U C35G U53A C87G G92U C96A U145C | ≤ -4.2
46 | A17C A39U G42A A60G C69A A97C C99A U134C U135A U148G | ≤ -4.2
47 | C18U A23C A30U G58A A73U U82C C87A A97C G117A G143U A147C A150U | ≤ -4.2
48 | A17G A41U A73U C85G C87A C99A G100A | ≤ -4.2
49 | C18G A30U C35A U61G G62U C93U U111G G124A | ≤ -4.2
50 | A17U A19G U44A C103A C125U | ≤ -4.2
51 | C18G A23C A29G C51U C72G G81A G140U | ≤ -4.2
52 | A16U A21U C35U U44A G59C C96G | ≤ -4.2
53 | A17C A23U U45A G46C C85U A119G C123A G133C U146C | ≤ -4.2
54 | A17U G50U C63U C93U C103U G126A C132U | -3.74
55 | C18A A21U A29U U56A C95A A137G A142C | ≤ -4.2
56 | C18G A24U U55A C69U G74A | -2.16
57 | C18G C57A C93U U135C U145G | -3.11
58 | A17G C54U G59A C72U G88A A147G | ≤ -4.2
59 | A17C C54A | -1.11
60 | A16U A41G A73G C85A C95U C125U | ≤ -4.2
61 | A17G A39C C79A C87A G136C | ≤ -4.2
62 | A17U C93U | -1.07
63 | A16U A30C U61A C96U G140U | ≤ -4.2

Row | Variant | polymerase ribozyme fitness (log ratio)
64 | A17G A147U | 1.55
65 | A17C A110U | -4
66 | A17G A39C G83U C87U G100C U135C | ≤ -4.2
67 | A17G G48A | -1.03
68 | A17G G50A U55G A89U C93A | ≤ -4.2
69 | C18G C79G | -3.9
70 | C18U A29U G68A C85U | ≤ -4.2
71 | A17C C99A | -0.000978
72 | A17C A20U A37U U55G G71U G83U A89U A142C | ≤ -4.2
73 | C18U A23U A91U C95G U104C C118A A147U | ≤ -4.2
74 | A16U C76A A91G C118U | ≤ -4.2
75 | A16U A26C A29U U55G A97C G140U | ≤ -4.2
76 | A16U A19U A24C A47C G48C C57A G83A A107U | ≤ -4.2
77 | A16U G46U G59C C76G G84U C85U U102C A138U | ≤ -4.2
78 | A17U U104A A106U G141C | ≤ -4.2
79 | A16U C32A C96U U102C A115U | ≤ -4.2
80 | A16G U148C | -2.77
81 | C18U A24U A40C U53A U55A A73U G84C U101G A122G G126A | ≤ -4.2
82 | A16U C35U G92U C116G | -3.21
83 | A17U A29C A64U C118U U134G | ≤ -4.2
